At least one compound was matched to its structure with a doubt left.
Molecular target: AMPK
Experiment: AMPK activation, enzyme-linked immunosorbent assay
Format: biochemical
Method: Compounds of Table 1 were assayed for their ability to activate AMPK using an enzyme-linked immunosorbent assay.
Compounds of Table 2 were assayed for their ability to activate AMPK using an enzyme-linked immunosorbent assay.
Compounds of Table 3 were assayed for their ability to activate AMPK using an enzyme-linked immunosorbent assay.
Compounds of Table 4 were assayed for their ability to activate AMPK using an enzyme-linked immunosorbent assay.
Compounds of Table 5 were assayed for their ability to activate AMPK using an enzyme-linked immunosorbent assay.
Compounds of Table 6 were assayed for their ability to activate AMPK using an enzyme-linked immunosorbent assay.
Compounds of Table 7 were assayed for their ability to activate AMPK using an enzyme-linked immunosorbent assay.

Row | SMILES | EC50 (Table 13, compounds of Table 6) [µM] | EC50 (Table 14, compounds of Table 7) [µM] | other results
1 | N#Cc1ccc(CN2CCC(NC(=O)c3cc4cc(NC(=O)n5ccnc5)ccc4o3)CC2)cc1 [Compound 6-55, N-(2-(1-(4-cyanobenzyl)piperidin-4-ylcarbamoyl)benzofuran-5-yl)-1H-imidazole-1-carboxamide] | 0.1 to 1 | – | –
2 | CC(=O)c1ccc(Oc2ccc(NC(=O)c3ccc(C(=O)N4CCN(c5ccc(S(=O)(=O)N6CCCC6)cc5)CC4)nc3)cn2)cc1 [Compound 7-82, N-(6-(4-acetylphenoxy)pyridin-3-yl)-6-(4-(4-(pyrrolidin-1-ylsulfonyl)phenyl)piperazine-1-carbonyl)nicotinamide] | – | 1 to 10 | –
3 | N#Cc1ccc(CN2CCC(NC(=O)c3cc4cc(NC(=O)C5CCN(c6ccccn6)CC5)ccc4o3)CC2)cc1 [Compound 6-33, N-(2-(1-(4-cyanobenzyl)piperidin-4-ylcarbamoyl)benzofuran-5-yl)-1-(pyridin-2-yl)piperidine-4-carboxamide] | < 0.1 | – | –
4 | O=C(Nc1ccc(Oc2ccc(F)cc2)nc1)c1cc2cc(C(=O)N3CCC(Oc4ccc(F)cc4)CC3)ccc2o1 [Compound 6-20, 5-(4-(4-fluorophenoxy)piperidine-1-carbonyl)-N-(6-(4-fluorophenoxy)pyridin-3-yl)benzofuran-2-carboxamide] | < 0.1 | – | –
5 | Cn1cnc2cc(OC3CCN(C(=O)c4ccc(C(=O)NC5CCN(Cc6ccc(OC(F)(F)F)cc6)CC5)cn4)CC3)ccc21 [Compound 7-39, 6-(4-(1-methyl-1H-benzo[d]imidazol-5-yloxy)piperidine-1-carbonyl)-N-(1-(4-(trifluoromethoxy)benzyl)piperidin-4-yl)nicotinamide] | – | 1 to 10 | –
6 | N#Cc1ccc(O[C@H]2CC[C@@H](NC(=O)c3cc4cc(C(=O)N5CCC(Oc6ccc(C(F)(F)F)cc6)CC5)ccc4o3)CC2)cc1 [Compound 6-31, N-((1s,4s)-4-(4-cyanophenoxy)cyclohexyl)-5-(4-(4-(trifluoromethyl)phenoxy)piperidine-1-carbonyl) benzofuran-2-carboxamide] | < 0.1 | – | –
7 | N#Cc1ccc(CN2CCC(NC(=O)c3cc4cc(NC(=O)C5CCN(Cc6ccc(Oc7ccccc7)cc6)CC5)ccc4o3)CC2)cc1 [Compound 6-44, N-(2-(1-(4-cyanobenzyl)piperidin-4-ylcarbamoyl)benzofuran-5-yl)-1-(4-phenoxybenzyl)piperidine-4-carboxamide] | 0.1 to 1 | – | –
8 | O=C(NC1CCN(Cc2ccc(OC(F)(F)F)cc2)C[C@H]1F)c1ccc(C(=O)N2CCN(c3ccc(C(=O)C4CC4)cc3)CC2)nc1 (stereo partly drawn) [Compound 4-10, 6-(4-(4-(cyclopropanecarbonyl)phcnyl)piperazine-1-carbonyl)-N-((3,4-trans)-3-fluoro-1-(4-(trifluoromethoxy)benzyl)piperidin-4-yl)nicotinamide] | – | – | EC50 (Table 11, compounds of Table 4): < 0.5 µM

The next lines start with results.

Row | EC50 (Table 13, compounds of Table 6) [µM] | EC50 (Table 14, compounds of Table 7) [µM] | SMILES | other results
9 | – | < 1 | COc1ccc(C(=O)C2CCN(C(=O)c3ccc(C(=O)NC4CCN(Cc5ccc(OC(F)(F)C(F)F)cc5)CC4)cn3)CC2)cc1 [Compound 7-65, 6-(4-(4-methoxybenzoyl)piperidine-1-carbonyl)-N-(1-(4-(1,1,2,2-tetrafluoroethoxy)benzyl)piperidin-4-yl)nicotinamide] | –
10 | – | < 1 | O=C(NC1CCN(Cc2ccc(OC(F)(F)F)cc2)C[C@H]1F)c1ccc(C(=O)N2CCC(C(=O)c3ccc(-n4cccn4)cc3)CC2)nc1 (stereo partly drawn) [Compound 7-54, 6-(4-(4-(1H-pyrazol-1-yl)benzoyl)piperidine-1-carbonyl)-N-((3,4-trans)-3-fluoro-1-(4-(trifluoromethoxy)benzyl)piperidin-4-yl)nicotinamide] | –
11 | – | < 1 | COc1ccc(C(=O)C2CCN(C(=O)c3ccc(C(=O)NC4CCN(Cc5ccc(C(F)(F)F)cc5)C[C@H]4F)cn3)CC2)cc1 (stereo partly drawn) [Compound 7-31, N-((3,4-trans)-3-fluoro-1-(4-(trifluoromethyl)benzyl)piperidin-4-yl)-6-(4-(4-methoxybenzoyl)piperidine-1-carbonyl)nicotinamide] | –
12 | – | < 1 | O=C(NC1CCN(Cc2ccc(OC(F)(F)F)cc2)C[C@H]1F)c1ccc(C(=O)N2CCC(C(=O)c3ccc(OC(F)(F)F)cc3)CC2)nc1 (stereo partly drawn) [Compound 7-69, N-((3,4-trans)-3-fluoro-1-(4-(trifluoromethoxy)benzyl)piperidin-4-yl)-6-(4-(4-(trifluoromethoxy)benzoyl)piperidine-1-carbonyl) nicotinamide] | –
13 | – | 10 to 20 | COc1ccc(C(=O)C2CCN(C(=O)c3ccc(C(=O)NC4CCN(Cc5cc(C#N)ccc5OC)C[C@H]4F)cn3)CC2)cc1 (stereo partly drawn) [Compound 7-60, N-((3,4-trans)-1-(5-cyano-2-methoxybenzyl)-3-fluoropiperidin-4-yl)-6-(4-(4-methoxybenzoyl)piperidine-1-carbonyl)nicotinamide] | –
14 | – | < 1 | O=C(NC1CCN(Cc2ccc(OC(F)(F)F)cc2)C[C@H]1F)c1ccc(C(=O)N2CCC(Oc3ccc(S(=O)(=O)C(F)(F)F)cc3)CC2)nc1 (stereo partly drawn) [Compound 7-50, N-((3,4-trans)-3-fluoro-1-(4-(trifluoromethoxy)benzyl)piperidin-4-yl)-6-(4-(4-(trifluoromethylsulfonyl)phenoxy)piperidine-1-carbonyl)nicotinamide] | –
15 | – | 1 to 10 | COc1ccc(C(=O)C2CCN(C(=O)c3ccc(C(=O)NC4CCN(Cc5ccc(C#N)c(OC)c5)C[C@H]4F)cn3)CC2)cc1 (stereo partly drawn) [Compound 7-66, N-((3,4-trans)-1-(4-cyano-3-methoxybenzyl)-3-fluoropiperidin-4-yl)-6-(4-(4-methoxybenzoyl)piperidine-1-carbonyl)nicotinamide] | –

Reference: US9409884B2 (Rigel Pharmaceuticals, Inc., priority 2012, dated 2016)
